A number of entries come with more than one value. Only these are listed. The source may hold further records. Values that stand side by side appear to be repeats (runs, samples, wells or individuals); one of them may be the mean.
Tested on: Human cervical cancer cells (HeLa S3)
Assay: Effect by combined use of drugs in cells (docetaxel), WST-8 method
Assay type: cell-based
Details: docetaxel 0.3 nM alone, HeLa S3, three days
Method: Fetal calf serum (FCS) was purchased from Moregate Biotech, DMEM medium from Invitrogen Corp., docetaxel (tradename: Taxere) from Sigma-Aldrich, Inc., and WST-8 from Kishida Chemical Co., Ltd.
Human cervical cancer cells (HeLa S3) were obtained from the American Type Culture Collection (ATCC).
Cells were suspended in a DMEM medium containing 10% FCS, and the cell suspension was dispensed to two 96-well plastic plates at a rate of 750 cells/100 microliters per well. The plates were incubated overnight in 5% CO2-95% air at 37° C. A drug was subjected to graded dilution in dimethylsulfoxide and further diluted with DMSO or with a DMEM medium containing 10% FCS and also containing 0.6 nM docetaxel. […] Cell growth after incubation was measured by the WST-8 method (H. Tominaga, et al., Anal. Commun., 36, 47-50 (1999)). Here, the WST-8 method refers to a method in which 20 microliters of a WST-8 reagent solution is added to each well, incubation is conducted at 37° C. for 60 minutes, the plate is stirred, and the amount of formazan produced is measured by a colorimetric method to determine the inhibitory rate of the drug. The growth inhibitory effects of docetaxel and of the compound according to the invention were determined, with the value obtained in sole treatment of DMSO being defined as 0%.

CC(=O)O[C@@]12CO[C@@H]1C[C@H](O)[C@@]1(C)C(=O)[C@H](O)C3=C(C)[C@@H](OC(=O)[C@H](O)[C@@H](NC(=O)OC(C)(C)C)c4ccccc4)C[C@@](O)([C@@H](OC(=O)c4ccccc4)[C@H]21)C3(C)C [docetaxel, reference compound]
Cell growth inhibitory effect by sole administration of docetaxel (0.3 nM) (%): 53.4, 52.1, 49.6, 48.9% [lines of one column]

From patent publication US7915263B2, “Aminopyridine derivatives having aurora A selective inhibitory action” (Banyu Pharmaceutical Co., Ltd., priority 2006, dated 2011)
